Read counts are not given, so values of variants with three or more changes are uncertain.

First the molecules themselves.
B1: LINE1-mini (parent)
chain: GGCAGAGCUCAACACAGCGUGGCAAAGUGGCUGUGGCUAGACUGCC

The series covers variants of B1. Nature of the series: self-cleavage, relative activity (ratio to wild type); higher = more cleavage; in vitro, sequencing; the parent is a self-cleaving ribozyme.
G1A C42G C45A: the self-cleavage was found to be 0.03.

As for A4G G22A G33U, the self-cleavage was determined as 0.17.

As for G1U G5A C23A A25U, the self-cleavage is 0.23.

With G1A G2U A16C C42U, the self-cleavage amounted to 0.02.

On to C15A G17C U20A G21A A41U, for which the self-cleavage is 0.03.

On to C3U C8G C45A, for which the self-cleavage was found to be 0.05.

For C8G C31U A41C, the self-cleavage came out at 0.04.

Consider C13A C15A C23U, for which the self-cleavage was 0.7.

Regarding C13U C18U U28G G35C, the self-cleavage is 0.04.

Take G2C C15U G29U: the self-cleavage was 0.08.

For the variant G2U G5A G35U, the self-cleavage was determined as 0.03.

Take U9C C15U A26U: the self-cleavage was 0.02.

For A11G G27A U34A C46U, the self-cleavage stood at 0.01.

In the case of A24G G40U U43A, the self-cleavage was found to be 0.08.

For the variant C18G U32C A39U, the self-cleavage worked out at 0.01.

A12G A25U G36U G44U: the self-cleavage came to 0.01.

In the case of C3G A4C G5A A6G G40U, the self-cleavage was 0.56.

As for C10U A11U C13G, the self-cleavage was determined as 0.05.

Consider A4G A11U U34C, for which the self-cleavage was 0.

Regarding A4C C10U C15A, the self-cleavage came out at 0.04.

As to C8U G17C G21U, the self-cleavage came to 0.09.

Regarding C3A A6G C45U, the self-cleavage was 0.13.

Consider U20G G35U C46U, for which the self-cleavage was determined as 0.04.

As to G5U G29U U34G, the self-cleavage came to 0.16.

As to G2U G21A C31A U38C C45A, the self-cleavage was determined as 0.03.

Consider G7C U28C G35C A39G, for which the self-cleavage turned out to be 0.02.

For the variant A4G A11U U20G G36C, the self-cleavage is 0.01.

Regarding C3A G19A U32G, the self-cleavage was 0.05.

For the variant G2A G5A G27A G40A, the self-cleavage is 0.44.

C18A U20C A41U: the self-cleavage came to 0.15.

For G5C A14G A25C U32C, the self-cleavage was found to be 0.05.

As for G5U A16G G17U A25C G33U, the self-cleavage amounted to 0.01.

Consider C3G C8U G19C, for which the self-cleavage was 0.05.

On to C23U A25G C31G, for which the self-cleavage stood at 0.13.

In the case of A12C C15G G19U G33U G40A, the self-cleavage turned out to be 0.

As to A25C G33A U34C U38A C42U, the self-cleavage is 0.01.

For G1A U38C G44U, the self-cleavage was 0.1.

As for C3A C18G U34A G40U, the self-cleavage was 0.67.

In the case of U9A G22A C23A G27C A41G C42G, the self-cleavage came out at 0.44.

Take G1C C8A A26U: the self-cleavage came to 0.01.

In the case of C10A G27C U38C A39C U43C G44C, the self-cleavage was determined as 0.01.

In the case of A6G C8U U9G U34A, the self-cleavage was 0.07.

Take A25G C42U C46U: the self-cleavage is 0.08.

As for G1U U34A G35A, the self-cleavage stood at 0.

As for G7A U20G G27A C42U, the self-cleavage came out at 0.13.

With C8U A16C C18U G30U, the self-cleavage amounted to 0.03.

With C3U G19U G36C C42U G44A, the self-cleavage came out at 0.07.

Regarding A6U C8U C13G C37U, the self-cleavage was determined as 0.73.

For the variant A12G G33U U43A C45G, the self-cleavage came out at 0.

Regarding C10A G21U U28A, the self-cleavage was found to be 0.04.

On to C3A A14G A16U G40A, for which the self-cleavage turned out to be 0.15.

On to G7U G29U G33A G36C, for which the self-cleavage was 0.

With U20A C23U G36U, the self-cleavage was found to be 0.07.

Regarding A16G C18A G22A C31U C37U, the self-cleavage was determined as 0.05.

Turning to G7A C42A C46U, the self-cleavage was 0.12.

As to U9C C15U A24G C46A, the self-cleavage was 0.02.

Turning to U9C C15G G22A U28A, the self-cleavage came to 0.03.

For the variant C8U U20C G22C C23U G35C, the self-cleavage turned out to be 0.31.

With A4C U9C U32G, the self-cleavage came to 0.03.

On to G2A G27U C45U, for which the self-cleavage was found to be 1.82.

Consider A11C G22U C31U A39U, for which the self-cleavage came to 0.01.

Take G1A G5C C13U A16G G33U: the self-cleavage came out at 0.02.

As for C3U A14G C23U U38A, the self-cleavage stood at 0.

Regarding U9G G22A G44C, the self-cleavage came out at 0.06.

Regarding G2C G7A U9G A25C, the self-cleavage was 0.03.

For G5A C10A G17U G27A, the self-cleavage was found to be 0.06.

On to C23G A26C C42U, for which the self-cleavage was found to be 1.54.

Consider U20A C31G G40U, for which the self-cleavage was found to be 0.14.

Consider C3G G19C U28G U34C, for which the self-cleavage turned out to be 0.15.

For the variant A6U C10A C18A, the self-cleavage stood at 0.03.

For C18U A25C C46A, the self-cleavage is 0.06.

Take G2U A4C U9C A11G A14C G19C C23A G30A: the self-cleavage was 0.01.

For the variant A12G C15A G21U U32A, the self-cleavage stood at 0.03.

As for A6C C10U C15G C31A, the self-cleavage came to 0.05.

As to C10A C15G C31U, the self-cleavage is 0.03.

In the case of C8U C13G C23U C45U, the self-cleavage worked out at 0.07.

C15U G22A G30A G35U G36C U43C: the self-cleavage amounted to 0.02.

Consider A4C C23A G36U G40U C46A, for which the self-cleavage was 0.05.

For the variant G22A C31A A39U G44U, the self-cleavage came to 0.01.

For C15G A24G G29U, the self-cleavage was 0.03.

G2A G7A G19A G21C A41G: the self-cleavage stood at 0.28.

Regarding C3A A6G C31A, the self-cleavage is 0.12.

Turning to C8U G21U G29U G30A, the self-cleavage amounted to 0.22.

Regarding G2U A4G C37U, the self-cleavage was 0.96.

As to G7U G35C G36A G40C A41C C46A, the self-cleavage was 0.02.

For the variant A14U A24G A26U C31G, the self-cleavage stood at 0.05.

Take A16C U20G G22U C46U: the self-cleavage is 0.07.

On to C13A A16U G19A C23A, for which the self-cleavage turned out to be 0.08.

A14U C18G G19C C37A: the self-cleavage worked out at 0.1.

Turning to A6C G7U G21C U43A, the self-cleavage was 0.06.

For A12U U20C A26U, the self-cleavage came to 0.06.

In the case of G21C A26C U38A, the self-cleavage was 0.22.

As to G1U U32G G40A, the self-cleavage turned out to be 0.03.

As for G21A G27A C31A, the self-cleavage came to 2.73.

In the case of G1C G7U A11G G29U U38A, the self-cleavage turned out to be 0.01.

As for C3A A26U G40A, the self-cleavage worked out at 0.15.

As for C3U G27A G29U G44U, the self-cleavage is 0.16.

As to G5A A6C A12G C13G U38C, the self-cleavage amounted to 0.03.

G29A G35U C42A G44U: the self-cleavage came out at 0.02.

As for A14G G19C C42A, the self-cleavage was determined as 0.01.

Regarding G35U G44U C45U, the self-cleavage came to 0.03.

As to C13U C23A A25C U28G A39G, the self-cleavage came to 0.12.

Consider A4C U34C U38C, for which the self-cleavage is 0.04.

For G7C C13A A39G, the self-cleavage is 0.07.

Regarding A25G G30C A41C, the self-cleavage turned out to be 0.

Consider C10A C13U A14C G17A G22U C23A, for which the self-cleavage was found to be 0.04.

For the variant G5C A25C C31U C46U, the self-cleavage was 0.03.

Regarding C3U A14U C45U, the self-cleavage was found to be 0.04.

C18G A24G G40C: the self-cleavage came to 0.03.

Turning to C3U G19C G30C, the self-cleavage worked out at 0.84.

Regarding A24U G33A G36U A41U, the self-cleavage came to 0.17.

As for G1A C15U U20C, the self-cleavage amounted to 0.9.

Take G5U A14U A41G: the self-cleavage was found to be 0.06.

For G19C U20A G27A C31U, the self-cleavage came out at 0.28.

For C8U C10A G19A G22U G27C C45G, the self-cleavage came to 0.02.

Take A4U G7C U20C: the self-cleavage is 0.02.

In the case of G1A A4C C23U, the self-cleavage was 0.08.

A4U G17A C18U G22U: the self-cleavage was 0.04.

As for A6G A16G G29U U34C G40U C42A, the self-cleavage turned out to be 0.01.

G1A G29A U32G: the self-cleavage was found to be 0.09.

With A14U U20G G44A, the self-cleavage worked out at 0.08.

As to G17C G22U G36A, the self-cleavage was 0.09.

With G1C A6U C15U A16G, the self-cleavage stood at 0.04.

U9A C15U G21C C23U G27C: the self-cleavage was 1.12.

As to A6C G19U A25G, the self-cleavage came out at 0.49.

Turning to G5A A6C A11U C13U A14G C23A, the self-cleavage is 0.01.

For the variant A4C G7A C46G, the self-cleavage is 0.07.

As to C3U G17A G35C, the self-cleavage is 0.01.

G21U U34C A41G C46G: the self-cleavage came out at 0.03.

For G7A C8A G21A A39U, the self-cleavage was 0.13.

On to G5C C37U G44U, for which the self-cleavage was 0.07.

As for C31A G44U C45A, the self-cleavage came to 0.

For the variant U20C G30A G35U, the self-cleavage worked out at 0.07.

Regarding G2A A4U C18U G35U G40A, the self-cleavage was found to be 0.13.

Take A14G G17A U32A: the self-cleavage was found to be 0.09.

As to G2A G33A U38A, the self-cleavage amounted to 0.24.

For C3A C23G A24G, the self-cleavage was determined as 0.5.

Turning to A26U U28A U32G, the self-cleavage worked out at 0.07.

G19C G22U G36U: the self-cleavage came to 0.03.

Take G1U G2A U34A: the self-cleavage was found to be 0.02.

As for U9C C13G G19C U28C, the self-cleavage was 0.01.

Turning to A14U C18U C37A, the self-cleavage came out at 0.13.

Regarding G7U C31U U32C, the self-cleavage stood at 0.12.

In the case of A6G G19U G22A G27U, the self-cleavage was found to be 0.03.

G5A C10U C15A U32C G36U: the self-cleavage was determined as 0.01.

As to A6U G36U G40A, the self-cleavage came out at 0.04.

Regarding A11U G29U G35A G36U G44C, the self-cleavage turned out to be 0.01.

As to G1C A39C A41U, the self-cleavage came out at 0.02.

On to G7U U9G A11G G17C, for which the self-cleavage came out at 0.02.

Turning to C10A A12C G27A, the self-cleavage worked out at 0.03.

In the case of A25G U34A G35U, the self-cleavage was found to be 0.02.

Regarding G2A G30C C31U G35U, the self-cleavage stood at 0.14.

As to G5A G7A C15A G33U, the self-cleavage is 0.22.

In the case of A6U C10G U28A C37U, the self-cleavage came out at 0.01.

For C13U G30C A39U, the self-cleavage worked out at 0.08.

G2U A4C G19C C31U G36U U43G: the self-cleavage turned out to be 0.

As to G1C U28C C46G, the self-cleavage came out at 0.49.

With U28G U34C G35C, the self-cleavage was 0.01.

As to G5U U32A G36U, the self-cleavage stood at 0.47.

As for G2C A4G C8G G19U C23G A25U G36A, the self-cleavage was 0.06.

For G7U C10U G21U, the self-cleavage was 0.04.

Turning to A4C A14U G17A G44U, the self-cleavage turned out to be 0.31.

For G21C A24G G29C, the self-cleavage worked out at 0.34.

Turning to G5C A6C G29A U43A, the self-cleavage came out at 0.17.

Consider G2C A16G G33C, for which the self-cleavage is 0.01.

On to G1U C8A C18A G27U, for which the self-cleavage was found to be 0.01.

Turning to C13A C31U U32G G36U C46G, the self-cleavage was determined as 0.03.

For the origin of these results see the RNAGym collection of RNA variant scans (doi:10.7554/elife.90254).
